This is an account of results in US8637090B2, “Gallium formulation for the treatment and prevention of infectious diseases” (Aridis Pharmaceuticals, priority 2009, dated 2014).

Converted amounts (≈) assume the structure as drawn. Where two headings read alike, the source gives them in different places. Marks after values point to notes of the source that are not given here.

This test deals with mucoid and non-mucoid strains of P. aeruginosa. As to the kind of experiment: Minimum inhibitory concentration in iron-starved BM-2 broth. In kind it is cell-based. The conditions noted are these: for MIC: 24 hours.

By MIC is commonly meant the least concentration at which growth counts as inhibited. As for `O=[N+]([O-])[O-].O=[N+]([O-])[O-].O=[N+]([O-])[O-].[Ga+3]` [Gallium, gallium nitrate], the MIC by setting is: (mucoid strain 20JR) less than 1 µg/mL; (mucoid strain 35LK) less than 1 µg/mL; (mucoid strain 47JS) less than 1 µg/mL; (mucoid strain 62LL) less than 1 µg/mL; (mucoid strain 96JC) less than 1 µg/mL; (mucoid strain 97JE) less than 1 µg/mL. The same compound returned an MIC (non-mucoid strain 9HN) of less than 2 µg/mL; an MIC (non-mucoid strain 30IX) of less than 1 µg/mL; a minimum inhibitory concentration (MIC) (non-mucoid strain 30JS) of less than 1 µg/mL; an MIC (non-mucoid strain 38LL) of less than 1 µg/mL; a minimum inhibitory concentration (MIC) (non-mucoid strain 39IV) of less than 1 µg/mL; a minimal inhibitory concentration (MIC) (non-mucoid strain 46IV) of less than 1 µg/mL. This compound also came in with an MIC (non-mucoid strain 55HY) of less than 1 µg/mL.
For the compound `NC[C@H]1O[C@H](O[C@H]2[C@H](O)[C@@H](O[C@H]3O[C@H](CO)[C@@H](O)[C@H](N)[C@H]3O)[C@H](N)C[C@@H]2N)[C@H](N)C[C@@H]1O` [Tobramycin], the minimal inhibitory concentration (MIC) runs as follows: (Pseudomonas aeruginosa, 24 h, mucoid strain 20JR, read-out: MIC) 4 µg/mL (≈ 8.56 µM); (Pseudomonas aeruginosa, 24 h, mucoid strain 35LK, read-out: MIC) 8 µg/mL (≈ 17.1 µM); (Pseudomonas aeruginosa, 24 h, mucoid strain 47JS, read-out: MIC) 32 µg/mL (≈ 68.4 µM); (Pseudomonas aeruginosa, 24 h, mucoid strain 62LL, read-out: MIC) 1 µg/mL (≈ 2.14 µM); (Pseudomonas aeruginosa, 24 h, mucoid strain 96JC, read-out: MIC) 16 µg/mL (≈ 34.2 µM); (Pseudomonas aeruginosa, 24 h, non-mucoid strain 30IX, read-out: MIC) 16 µg/mL (≈ 34.2 µM). Also, the MIC is 1 µg/mL (≈ 2.14 µM) (Pseudomonas aeruginosa, 24 h, non-mucoid strain 30JS, read-out: MIC); 16 µg/mL (≈ 34.2 µM) (Pseudomonas aeruginosa, 24 h, non-mucoid strain 38LL, read-out: MIC); 4 µg/mL (≈ 8.56 µM) (Pseudomonas aeruginosa, 24 h, non-mucoid strain 39IV, read-out: MIC); 64 µg/mL (≈ 137 µM) (Pseudomonas aeruginosa, 24 h, non-mucoid strain 46IV, read-out: MIC). The “susceptibility class beside MIC” value is given as “(S)” (mucoid strain 20JR); “(I)” (mucoid strain 35LK); “(R)” (mucoid strain 41JQ); “(R)” (mucoid strain 47JS); “(S)” (mucoid strain 62LL); “(R)*” (mucoid strain 96JC). The “susceptibility class beside MIC” value (mucoid strain 97JE) is “(R)”; the “susceptibility class beside MIC” value (non-mucoid strain 9HN) is “(R)”; the “susceptibility class beside MIC” value (non-mucoid strain 30IX) is recorded as “(R)”; the “susceptibility class beside MIC” value (non-mucoid strain 30JS) is listed as “(S)”; the “susceptibility class beside MIC” value (non-mucoid strain 39IV) is reported as “(S)”; the “susceptibility class beside MIC” value (non-mucoid strain 46IV) is given as “(R)”. In addition, the “susceptibility class beside MIC” value (non-mucoid strain 55HY) is recorded as “(R)”.
